# Results reported in PubChem BioAssay AID1347165 (National Center for Advancing Translational Sciences (NCATS), 2019).
# Out of some 220,000 compounds screened, about 5,700 (2.6%) were called active. The inconclusive results got no clear call from the source; some entries with a clear call stand among them for comparison. The call rests on the fitted dose curve; in most records, active means well fitted inhibition curve with a large enough effect; inconclusive means small, poorly fitted or top-dose-only effect; inactive means no such curve, though single readings can be large or run the other way. Where the call is inconclusive, the potency comes from a doubtful curve fit.
# Target: Lysine-specific demethylase 5B (Homo sapiens) (UniProt Q9UGL1)
# Assay: Primary screen for KDM5B Histone Demethylases FDH-coupled qHTS; further: nearly all actives have a fitted effect of over 70% in size; on activity change, negative = inhibition: 0% is about no effect
# Conditions: FDH-coupled NADH fluorescence (FDH is formaldehyde dehydrogenase); activity change, negative = inhibition: at 57.7 µM (top of the series) unless noted
# Procedure, shortened: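 qHTS format, multiple compound concentrations. Buffer 50 mM HEPES pH 7.5/0.01% Tween-20; 200 nM KDM5BΔAP final; 10 min compound preincubation; substrate-mix levels 12.5 µM peptide, 25 µM α-KG, 0.25 mM NAD⁺; 30 min RT; ΔRFU.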
# Potency means the concentration at half of the fitted maximal effect; tags describe the fitted curve by direction and shape.
# Sequence of UniProt Q9UGL1 (Q9UGL1 whole entry, looked up): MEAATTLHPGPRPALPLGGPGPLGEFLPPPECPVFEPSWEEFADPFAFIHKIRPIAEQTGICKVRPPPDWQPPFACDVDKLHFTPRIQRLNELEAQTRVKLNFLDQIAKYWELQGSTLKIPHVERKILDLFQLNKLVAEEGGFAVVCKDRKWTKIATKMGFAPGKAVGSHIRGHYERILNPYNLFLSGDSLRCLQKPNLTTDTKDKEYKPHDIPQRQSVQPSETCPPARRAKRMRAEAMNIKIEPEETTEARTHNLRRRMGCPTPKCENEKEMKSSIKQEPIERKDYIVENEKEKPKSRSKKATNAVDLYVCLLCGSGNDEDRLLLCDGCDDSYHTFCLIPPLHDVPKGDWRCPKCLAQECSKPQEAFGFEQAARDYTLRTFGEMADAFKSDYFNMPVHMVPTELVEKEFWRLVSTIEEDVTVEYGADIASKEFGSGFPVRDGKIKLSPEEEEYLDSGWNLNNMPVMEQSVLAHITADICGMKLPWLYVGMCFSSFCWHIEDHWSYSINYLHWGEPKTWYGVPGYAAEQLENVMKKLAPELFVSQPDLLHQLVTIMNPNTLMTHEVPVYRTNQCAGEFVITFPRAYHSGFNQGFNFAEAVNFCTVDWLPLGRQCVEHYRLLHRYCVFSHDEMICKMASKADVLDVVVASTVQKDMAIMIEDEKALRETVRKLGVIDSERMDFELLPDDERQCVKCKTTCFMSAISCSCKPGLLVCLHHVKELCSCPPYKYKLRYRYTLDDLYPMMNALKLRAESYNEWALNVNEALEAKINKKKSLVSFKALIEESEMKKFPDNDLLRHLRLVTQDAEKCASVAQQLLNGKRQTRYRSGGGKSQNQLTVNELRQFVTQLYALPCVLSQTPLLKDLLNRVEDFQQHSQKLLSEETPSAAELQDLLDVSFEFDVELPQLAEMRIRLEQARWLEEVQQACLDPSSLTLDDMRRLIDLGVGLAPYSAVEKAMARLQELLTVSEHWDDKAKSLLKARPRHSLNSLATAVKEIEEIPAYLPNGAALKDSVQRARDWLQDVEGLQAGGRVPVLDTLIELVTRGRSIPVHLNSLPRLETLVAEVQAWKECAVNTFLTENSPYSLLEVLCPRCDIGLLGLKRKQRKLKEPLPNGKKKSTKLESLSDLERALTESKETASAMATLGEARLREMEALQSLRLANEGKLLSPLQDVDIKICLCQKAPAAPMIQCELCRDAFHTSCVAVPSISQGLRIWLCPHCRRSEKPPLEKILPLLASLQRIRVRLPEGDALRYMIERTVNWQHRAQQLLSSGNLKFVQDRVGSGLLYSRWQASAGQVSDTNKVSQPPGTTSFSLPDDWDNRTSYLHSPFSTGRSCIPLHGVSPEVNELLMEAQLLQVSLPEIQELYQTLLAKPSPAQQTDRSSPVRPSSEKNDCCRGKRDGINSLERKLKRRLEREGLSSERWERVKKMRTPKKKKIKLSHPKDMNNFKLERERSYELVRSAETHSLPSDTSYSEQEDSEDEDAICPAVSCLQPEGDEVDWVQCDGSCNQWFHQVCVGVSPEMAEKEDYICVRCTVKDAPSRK
Compound,Potency,"activity change, negative = inhibition"
O=C(NCCN1CCCCC1)c1ccc(Cn2c(SCc3ccc(F)cc3)nc3cccnc32)cc1,"inconclusive: 35.5 µM [inhibitor, single point]",–
N#Cc1ccc(OCC(=O)NOCc2ccccc2)cc1,inactive,–
CC(C)c1ccc(CNC(=O)C2Cn3cccc3C(=O)N2)cc1 (configuration not stated),inactive,–
COn1c(C)c(C)c2c3nonc3ccc21,"inconclusive: 12.6 µM [inhibitor, partial curve, poor fit]",–
Cc1ccc(C)c(S(=O)(=O)n2nc(C)c(S(=O)(=O)N3CCC(C)CC3)c2C)c1,"inconclusive: 35.5 µM [inhibitor, single point]",–
O=c1c2nc(NCc3ccccc3)ccc2ncn1Cc1ccccc1,"inconclusive: 35.5 µM [inhibitor, partial curve, poor fit]",–
CN(C)C(C(=O)N1CCC(O)(c2ccccc2)CC1)c1cccc(F)c1 (configuration not stated),"inconclusive: 28.2 µM [inhibitor, partial curve]",–
COCCN(Cc1cc2ccccc2[nH]c1=O)C(=O)c1cc(OC)cc(OC)c1,"inconclusive: 31.6 µM [inhibitor, partial curve, poor fit]",–
NC(=O)COC(=O)c1cc(-c2ccccc2)nc2ccccc12,"inconclusive: 20 µM [inhibitor, partial curve, poor fit]",–
Cc1ccsc1C(=O)OCC(=O)NC(=O)NC(C)(C)C,inactive,–
CCc1ccc(S(=O)(=O)N(C(C)=O)c2ccc3oc4c(c3c2)CCCC4)cc1,–,inconclusive: -43.7% [inhibitor]
OCC1CN(C2CCC2)CC12CCN(Cc1cc(F)ccc1F)CC2 (configuration not stated),"inconclusive: 12.6 µM [inhibitor, partial curve]",–
COCc1nc(NCc2cn3cc(C)sc3n2)cc(C2CC(N)C2)n1 (configuration not stated),"inconclusive: 10 µM [inhibitor, partial curve, poor fit]",–
COc1ccc(C(=O)N2CCC3(CC2)CC(c2cccc(C(F)(F)F)c2)=NO3)cc1,inactive,–
S=c1[nH]c(-c2ccccc2)cs1,"inconclusive: 14.1 µM [inhibitor, single point]",–
COc1cccc(NC(=O)C2CCCN2S(=O)(=O)c2ccc3nc(-c4ccccc4)[nH]c3c2)c1 (configuration not stated),"inconclusive: 15.8 µM [inhibitor, partial curve, poor fit]",–
Cc1ccc(CNC(=O)C2(CCO)CCN(c3ncccn3)C2)o1 (configuration not stated),active: 28.2 µM,–
COc1ccc(N2CCCCS2(=O)=O)cc1S(=O)(=O)NCc1ccco1,inactive,–
COc1ccc(OCc2nc(C#N)c(NCc3ccccc3Cl)o2)cc1,"inconclusive: 7.94 µM [inhibitor, partial curve, poor fit]",–
COCc1ccc2c(c1)c(OC(C)(C)C(=O)NCCCn1ccnc1)nn2Cc1cccc(OC)c1,active: 22.4 µM,–
Cc1ccc(NC(=O)C(=O)c2c[nH]c3ccccc23)cc1Cl,inactive,–
O=C(NC1CC1)c1ccc2nnc(-c3ccc(F)cc3)n2c1,active: 126 µM,–
N#Cc1ccc(OCCSCc2cccc(F)c2)cc1,inactive,–
COc1ccc(Nc2nc(C(=O)OCC(=O)c3cccc(OC)c3)cs2)cc1,inactive,–

Compound,Potency,"activity change, negative = inhibition"
Cc1cccc(-c2nnc(NC(=O)c3ccco3)s2)c1,"inconclusive: 28.2 µM [inhibitor, partial curve, poor fit]",–
COc1ccc2cc(C(=O)NCC(C)C)c(C)nc2c1,"inconclusive: 28.2 µM [inhibitor, single point]",–
COc1ccccc1-c1c(C)nn2c(NC3CCCC3)cc(C)nc12,inactive,–
CNc1nccnc1-c1ccccc1S(=O)(=O)NC(C)(C)C,active: 28.2 µM,–
O=C(c1ccccc1)c1ccc(OCC(=O)N(Cc2nc3ccccc3c(=O)[nH]2)CC2CCCO2)cc1 (configuration not stated),inactive,–
CC1CCCCN1C(=O)CSc1nc(-c2cccs2)nc2ccccc12 (configuration not stated),"inconclusive: 25.1 µM [inhibitor, partial curve, poor fit]",–
O=C(Cc1ccc2c(c1)CCCC2)NNC(=O)c1ccncc1,inactive,–
CN(C)C[C@@H]1CN(c2ccncn2)C[C@H]1NC(=O)c1ccc2ccccc2n1,inactive,–
Cn1ccc(NC(=O)C(C)(C)Oc2nn(CC3CC3)c3ccc(CN4CCCC4)cc23)n1,active: 35.5 µM,–
COCCn1c(=NC(=O)c2ccc3c(c2)OCCO3)sc2cc(NC(C)=O)ccc21,"inconclusive: 3.16 µM [inhibitor, full curve, poor fit]",–
CN(C)CCNC(=O)c1cnc2c(c1)N(Cc1ccccc1)CCC2,active: 35.5 µM,–
CCN(CC)CCNC(=O)c1cc(C)nc2c(C)cccc12,"inconclusive: 28.2 µM [inhibitor, partial curve, poor fit]",–
Cc1ccccc1CNC(=O)CCc1ccnc(N2CCOCC2)c1,active: 22.4 µM,–
CCNC(=O)N1CC(Oc2ccc(-c3nc(-c4ccccc4)no3)cc2)C1,inactive,–
O=C1NC2(CCCN(C(=O)c3ccc(C(F)(F)F)cc3)C2)COc2ccccc21 (configuration not stated),"inconclusive: 39.8 µM [inhibitor, single point]",–
Cc1ccc(C(=O)/C=C/c2cn(CC(O)CN3CCCCCC3)c3ccccc23)cc1 (configuration not stated),"inconclusive: 25.1 µM [inhibitor, partial curve, poor fit]",–
COc1cc(C(=O)Nc2nc3c(s2)C[C@]2(C)CC[C@@H]4[C@H](OC(=O)[C@H]4C)[C@H]2[C@@H]3C)cc(OC)c1OC,active: 28.2 µM,–
CCc1ccccc1NC(=O)N1CCN(Cc2ccc(Cl)s2)CC1,inactive,–
O=C(NCc1nnc2n1C(C(=O)O)CC2)c1ccc(F)cc1 (configuration not stated),active: 44.7 µM,–
COc1ccc(/C=C/C(=O)c2cccs2)c(OC)c1,"inconclusive: 39.8 µM [inhibitor, single point]",–
CN(c1ccccc1)c1cc(=O)c2ccnc(-c3ccc(CO)cc3)c2o1,inactive,–
CCOC(=O)c1ccc(N2C(=O)Cc3ccccc3C2=O)cc1,"inconclusive: 22.4 µM [inhibitor, partial curve, poor fit]",–
O=C(CSc1nc(-c2cccs2)nc2ccccc12)NCc1ccco1,"inconclusive: 15.8 µM [inhibitor, partial curve, poor fit]",–
